Data on 26 compounds can be found in patent US11618753B2 (priority 2018, dated 2023).

One may read the IC50 as the point on the concentration scale where inhibition reaches its midpoint.

One assay deals with MLKL phosphorylation, HT29-L23 human colorectal adenocarcinoma cells. Nature of the assay: cells. The conditions noted are these: read-out: pMLKL HCS Cell Assay (IC50, uM).
Take `Cc1ccc(-c2cc(C(F)(F)F)c3c(N)ncnn23)c(F)c1C(=O)N[C@@H]1CN(C(=O)C(C)(C)F)C[C@@H]1F` [Example 753, 3-[4-amino-5-(trifluoromethyl)pyrrolo[2,1-f][1,2,4]triazin-7-yl]-2-fluoro-N-[(3R,4S)-4-fluoro-1-(2-fluoro-2-methylpropanoyl)pyrrolidin-3-yl]-6-methylbenzamide]: the IC50 came to 0.025 µM.

On to `Nc1ncnn2c(-c3ccc(OC(F)(F)F)c(C(=O)N[C@@H]4CN(C(=O)CC(F)(F)F)C[C@@H]4F)c3)cc(C(F)(F)F)c12` [Example 1049, 5-[4-amino-5-(trifluoromethyl)pyrrolo[2,1-f][1,2,4]triazin-7-yl]-N-[(3R,4S)-4-fluoro-1-(3,3,3-trifluoropropanoyl)pyrrolidin-3-yl]-2-(trifluoromethoxy)benzamide], for which the 50% inhibitory concentration (IC50) stood at 0.1 µM.

Consider `COc1ncc(-c2cc(C(F)(F)F)c3c(N)ncnn23)cc1C(=O)N[C@@H]1CN(C(=O)OC2CCC2)C[C@@H]1F` [Example 1448, cyclobutyl (3R,4S)-3-{5-[4-amino-5-(trifluoromethyl)pyrrolo[2,1-f][1,2,4]triazin-7-yl]-2-methoxypyridine-3-amido}-4-fluoropyrrolidine-1-carboxylate], for which the IC50 is 0.0015 µM.

`Cc1cc(F)c(-c2cc(C(F)(F)F)c3c(N)ncnn23)cc1C(=O)N[C@@H]1CN(C(=O)c2c(F)cccc2Cl)C[C@@H]1F` [Example 825, 5-[4-amino-5-(trifluoromethyl)pyrrolo[2,1-f][1,2,4]triazin-7-yl]-N-[(3R,4S)-1-(2-chloro-6-fluorobenzoyl)-4-fluoropyrrolidin-3-yl]-4-fluoro-2-methylbenzamide]: the 50% inhibitory concentration (IC50) turned out to be 0.0083 µM.

Turning to `COc1ncc(-c2cc(C(F)(F)F)c3c(N)ncnn23)cc1C(=O)N[C@H]1CCC[C@@H](c2ccc(Cl)cc2)C1` (racemic) [Example 1698, 5-(4-amino-5-(trifluoromethyl)pyrrolo[2,1-f][1,2,4]triazin-7-yl)-N-((1SR,3RS)-3-(4-chlorophenyl)cyclohexyl)-2-methoxynicotinamide], the concentration for half-maximal inhibition (IC50) came to 0.026 µM.

Turning to `Nc1ncnn2c(-c3cccc(C(=O)N[C@H]4CCCN(Cc5ccccc5)C4)c3)cc(C(F)(F)F)c12` [Example 80, 3-[4-amino-5-(trifluoromethyl)pyrrolo[2,1-f][1,2,4]triazin-7-yl]-N-[(3S)-1-benzylpiperidin-3-yl]benzamide], the 50% inhibitory concentration (IC50) was found to be 0.261 µM.

For `COc1ncc(-c2cc(C(F)(F)F)c3c(N)ncnn23)cc1C(=O)NCC[C@@H](OC)c1ccc(Cl)cc1` [Example 28, 5-[4-amino-5-(trifluoromethyl)pyrrolo[2,1-f][1,2,4]triazin-7-yl]-N-[(3R)-3-(4-chlorophenyl)-3-methoxypropyl]-2-methoxypyridine-3-carboxamide], the 50% inhibitory concentration (IC50) was 0.0031 µM.

Regarding `COc1ncc(-c2cc(C(F)(F)F)c3c(N)ncnn23)cc1C(=O)NC1CN(CC2CCCCO2)CC1F` (racemic) [Example 191, 5-[4-amino-5-(trifluoromethyl)pyrrolo[2,1-f][1,2,4]triazin-7-yl]-N-{4-fluoro-1-[(oxan-2-yl)methyl]pyrrolidin-3-yl}-2-methoxypyridine-3-carboxamide], the half-maximal inhibitory concentration (IC50) amounted to 0.152 µM.

With `Cc1ncc(-c2cc(C(F)(F)F)c3c(N)ncnn23)cc1C(=O)NC1CN(C(=O)C2CCC(F)(F)CC2)C[C@@H]1F` (mixture of isomers) [Example 358, 5-[4-amino-5-(trifluoromethyl)pyrrolo [2,1-f][1,2,4]triazin-7-yl]-N-[1-(4,4-difluorocyclohexanecarbonyl)-4-fluoropyrrolidin-3-yl]-2-methyl-pyridine-3-carboxamide], the half-inhibitory concentration (IC50) was 0.019 µM.

For the compound `Cc1ccc(-c2cc(C(F)(F)F)c3c(N)ncnn23)c(F)c1C(=O)N[C@@H]1CN(C(=O)CC(F)(F)F)C[C@@H]1F` [Example 760, 3-[4-amino-5-(trifluoromethyl)pyrrolo[2,1-f][1,2,4]triazin-7-yl]-2-fluoro-N-[(3R,4S)-4-fluoro-1-(3,3,3-trifluoropropanoyl)pyrrolidin-3-yl]-6-methylbenzamide], the IC50 was determined as 0.042 µM.

Consider `CCc1ccc(-c2cc(C(F)(F)F)c3c(N)ncnn23)cc1C(=O)N[C@@H]1CN(C(=O)C(C)(C)F)C[C@@H]1F` [Example 965, 5-[4-amino-5-(trifluoromethyl)pyrrolo[2,1-f][1,2,4]triazin-7-yl]-2-ethyl-N-[(3R,4S)-4-fluoro-1-(2-fluoro-2-methylpropanoyl)pyrrolidin-3-yl]benzamide], for which the IC50 is 0.01 µM.

Regarding `Cc1ccc(-c2cc(C(F)(F)F)c3c(N)ncnn23)cc1C(=O)N[C@@H]1CN(C(=O)c2cc(F)ccn2)C[C@@H]1F` [Example 1037, 5-[4-amino-5-(trifluoromethyl)pyrrolo[2,1-f][1,2,4]triazin-7-yl]-N-[(3R,4S)-4-fluoro-1-(4-fluoropyridine-2-carbonyl)pyrrolidin-3-yl]-2-methylbenzamide], the IC50 was 0.0035 µM.

For `COc1ncc(-c2cc(C(F)(F)F)c3c(N)ncnn23)cc1C(=O)NCC1CCCOC1c1ccccc1` (centres unmarked) [Example 128, 5-[4-amino-5-(trifluoromethyl)pyrrolo[2,1-f][1,2,4]triazin-7-yl]-2-methoxy-N-[(2-phenyloxan-3-yl)methyl]pyridine-3-carboxamide], the half-maximal inhibitory concentration (IC50) was found to be 0.313 µM.

In the case of `C[C@@](O)(C(=O)N1C[C@H](F)[C@H](NC(=O)c2cc(-c3cc(CN4CCC(F)(F)CC4)c4c(N)ncnn34)ccc2Cl)C1)C(F)(F)F` [Example 1141, 5-{4-amino-5-[(4,4-difluoropiperidin-1-yl)methyl]pyrrolo[2,1-f][1,2,4]triazin-7-yl}-2-chloro-N-[(3R,4S)-4-fluoro-1-[(2R)-3,3,3-trifluoro-2-hydroxy-2-methylpropanoyl]pyrrolidin-3-yl]benzamide], the IC50 turned out to be 0.00075 µM.

Regarding `Cc1ncc(-c2cc(C(F)(F)F)c3c(N)ncnn23)cc1C(=O)N[C@@H]1CN(C(=O)C(C)(C)F)C[C@@H]1F` [Example 374, 5-[4-amino-5-(trifluoromethyl)pyrrolo [2,1-f][1,2,4]triazin-7-yl]-N-[(3R,4S)-4-fluoro-1-(2-fluoro-2-methylpropanoyl)pyrrolidin-3-yl]-2-methylpyridine-3-carboxamide], the concentration for half-maximal inhibition (IC50) is 0.013 µM.

Consider `Cc1cc(F)c(-c2cc(C(F)(F)F)c3c(N)ncnn23)cc1C(=O)N[C@@H]1CN(C(=O)c2cscn2)C[C@@H]1F` [Example 833, 5-[4-amino-5-(trifluoromethyl)pyrrolo[2,1-f][1,2,4]triazin-7-yl]-4-fluoro-N-[(3R,4S)-4-fluoro-1-(1,3-thiazole-4-carbonyl)pyrrolidin-3-yl]-2-methylbenzamide], for which the 50% inhibitory concentration (IC50) stood at 0.0088 µM.

For `N#Cc1cc(-c2cccc(C(=O)NCCC(O)c3ccccc3)c2)n2ncnc(N)c12` (centres unmarked) [Example 5, 3-{4-amino-5-cyanopyrrolo[2,1-f][1,2,4]triazin-7-yl}-N-(3-hydroxy-3-phenylpropyl)benzamide], the IC50 was found to be 0.016 µM.

On to `Cc1ccc(-c2cc(C(F)(F)F)c3c(N)ncnn23)cc1C(=O)N[C@@H]1CN(C(=O)C(C)C(F)(F)F)C[C@@H]1F` (stereo partly drawn) [Example 999, 5-[4-amino-5-(trifluoromethyl)pyrrolo[2,1-f][1,2,4]triazin-7-yl]-N-[(3R,4S)-4-fluoro-1-(3,3,3-trifluoro-2-methylpropanoyl)pyrrolidin-3-yl]-2-methylbenzamide], for which the IC50 was 0.0032 µM.

Regarding `COc1cc(F)c(-c2cc(CN3CCC(F)(F)CC3)c3c(N)ncnn23)cc1C(=O)N[C@@H]1CN(C(=O)C2CC(F)(F)C2)C[C@@H]1F` [Example 1633, 5-{4-amino-5-[(4,4-difluoropiperidin-1-yl)methyl]pyrrolo[2,1-f][1,2,4]triazin-7-yl}-N-[(3R,4S)-1-(3,3-difluorocyclobutanecarbonyl)-4-fluoropyrrolidin-3-yl]-4-fluoro-2-methoxybenzamide], the IC50 was determined as 0.0024 µM.

Another assay has the same test system.
Assay: not given
The conditions noted are these: read-out: pMLKL HCS Cell Assay (IC50).
`COc1ncc(-c2cc(C(F)(F)F)c3c(N)ncnn23)cc1C(=O)NC1CN(C2CCCC2C(O)C(F)F)C[C@@H]1F` (stereo partly drawn) [Example 1374, 5-[4-amino-5-(trifluoromethyl)-pyrrolo[2,1-f][1,2,4]triazin-7-yl]-N-[(3R,4S)-1-[2-(2,2-difluoro-1-hydroxyethyl)-cyclopentyl]-4-fluoro-pyrrolidin-3-yl]-2-methoxy-pyridine-3-carboxamide]: the IC50 came to 328 nM.

In the case of `COc1ncc(-c2cc(C(F)(F)F)c3c(N)ncnn23)cc1C(=O)N[C@@H]1CN(C(C)c2cncs2)C[C@@H]1F` (single isomer, unassigned) [Example 445], the IC50 was determined as 0.83 nM.

`COc1ncc(-c2cc(C(F)(F)F)c3c(N)ncnn23)cc1C(=O)NCCC(O)(c1ccccc1)C(F)(F)F` (single isomer, unassigned) [Example 141, 5-[4-amino-5-(trifluoromethyl)pyrrolo[2,1-f][1,2,4]triazin-7-yl]-2-methoxy-N-(4,4,4-trifluoro-3-hydroxy-3-phenylbutyl)pyridine-3-carboxamide]: the IC50 was determined as 208 nM.

Turning to `CC(C(=O)N1C[C@H](F)[C@H](NC(=O)c2cc(-c3cc(C(F)(F)F)c4c(N)ncnn34)cc(F)c2Cl)C1)C(F)(F)F` (single isomer, unassigned) [Example 1329], the IC50 was found to be 3.7 nM.

As for `COc1ncc(-c2cc(C(F)(F)F)c3c(N)ncnn23)cc1C(=O)NC1CN(C(C)c2cc(F)cc(F)c2)C[C@@H]1F` (some centres unmarked) [Example 459], the half-inhibitory concentration (IC50) came to 2.6 nM.

As to `COc1ncc(-c2cc(CN3CCC(F)(F)CC3)c3c(N)ncnn23)cc1C(=O)N[C@@H]1CN(C(=O)OC(C)C(F)(F)C(F)(F)F)C[C@@H]1F` (stereo partly drawn) [Example 1531, 3,3,4,4,4-pentafluorobutan-2-yl (3R,4S)-3-(5-{4-amino-5-[(4,4-difluoropiperidin-1-yl)methyl]pyrrolo[2,1-f][1,2,4]triazin-7-yl}-2-methoxypyridine-3-amido)-4-fluoropyrrolidine-1-carboxylate], the IC50 was found to be 39 nM.

For the compound `Cc1ncc(-c2cc(C(F)(F)F)c3c(N)ncnn23)cc1C(=O)N1CCCC(C(C)(O)c2ccc(F)cc2)C1` (centres unmarked) [Example 1736, (5-(4-amino-5-(trifluoromethyl)pyrrolo[2,1-f][1,2,4]triazin-7-yl)-2-methylpyridin-3-yl)(3-(1-(4-fluorophenyl)-1-hydroxyethyl)piperidin-1-yl)methanone], the 50% inhibitory concentration (IC50) worked out at 222 nM.
